In the supplement of paper PMC12645437, “Orthogonal IMiD-Degron Pairs Induce Selective Protein Degradation in Cells” (ACS Chemical Biology, 2025):
The other results are listed elsewhere or left out.

Biological target: no compound (DMSO)
Assay: log2 fold change of degron read counts, EGFP-low vs EGFP+ sorted cells; higher = lower degron-EGFP level without compound (poor expression or instability)
Conditions: compound: DMSO control; 18 h
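Note: jurkat cells carrying a lentiviral library of mutant zinc finger degrons fused to EGFP plus mCherry, mCherry+ cells FACS sorted, degron abundance counted by next-generation sequencing.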

| Sequence | log2 fold change of degron read counts |
| --- | --- |
| FQCPQCGARFTQKGNLLRHIKL | -0.998 |
| FDCNQCGRTFTQKGNLLRHIKL | -0.349 |
| FVCDQCGACFTQKGNLLRHIKL | -1.28 |
| FKCEQCGAIFTQKGNLLRHIKL | -0.636 |
| LQCNQCGFKCTQKGNLLRHIKL | 0.228 |
| LWCEICGFDCTQKGNLLRHIKL | 0.895 |
| LSCNQCGFYCTQKGNLLRHIKL | 1.55 |
| FYCNVCGAAFTQKGNLLRHIKL | -0.746 |
| FICPICGHKFTQKGNLLRHIKL | -1.4 |
| FFCEICGAWFTQKGNLLRHIKL | 0.408 |
| FQCEQCGAMFTQKGNLLRHIKL | -2.04 |
| LDCNQCGFTCTQKGNLLRHIKL | 0.644 |
| FQCEQCGAVFTQKGNLLRHIKL | -2.33 |
| FGCDVCGAQFTQKGNLLRHIKL | -1.27 |
